Assay results from PubChem BioAssay AID256 (DTP/NCI, 2004).
Inconclusive results and toxic doses are left out. The calls were made as follows: active = survival T/C of 150% or more; inactive = T/C below 125% in these data.

Tested on: CD2F1 mice, L1210 leukemia ip, survival T/C
Assay: NCI In Vivo Anticancer Drug Screen. Data for tumor model L1210 Leukemia (intraperitoneal) in CD2F1 (CDF1) mice
Details: endpoint: mean survival time, schedule: Q04DX002 (ip), vehicle: saline with Tween-80, higher = longer survival
In short: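 Read-out first: treated-group measurement over vehicle-control measurement, expressed as a ratio. Animals bore a transplanted tumor line and were dosed with compound or vehicle.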

Measured: T/C

O=C(/C=C/c1ccccc1)Nc1ccccc1F
inactive: dose: 100.0 mg/kg/injection 100 % of control | dose: 200.0 mg/kg/injection 100 % of control | dose: 400.0 mg/kg/injection 96 % of control

O=C(/C=C/c1ccccc1)Nc1ccc(F)cc1
inactive: dose: 100.0 mg/kg/injection 96 % of control | dose: 200.0 mg/kg/injection 96 % of control | dose: 400.0 mg/kg/injection 96 % of control
